Reference: PubChem BioAssay AID488969 (Vanderbilt High Throughput Screening Facility, 2010)
In all, about 110,000 compounds were measured (“z-score”: median about -0.1, highest 2% from about 2 on). This is one part of the list. Activity calls are given as the source filed them.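 Rule for the calls: active = z-score in the third read window above 3 or below -3; inactive = the rest.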

target: Metabotropic glutamate receptor 8 (Rattus norvegicus) (UniProt P70579); assay: rat mGluR8 modulators via GIRK flux, primary screen, cell-based, thallium flux, HTS (AID 488969); conditions: HEK293 rat mGluR8, GIRK (G protein-gated inwardly rectifying potassium channel) thallium flux, FluoZin2; at 10 µM; stronger effect = higher value; submaximal glutamate (EC20) added with thallium
Sequence of UniProt P70579 (P70579 whole entry, looked up): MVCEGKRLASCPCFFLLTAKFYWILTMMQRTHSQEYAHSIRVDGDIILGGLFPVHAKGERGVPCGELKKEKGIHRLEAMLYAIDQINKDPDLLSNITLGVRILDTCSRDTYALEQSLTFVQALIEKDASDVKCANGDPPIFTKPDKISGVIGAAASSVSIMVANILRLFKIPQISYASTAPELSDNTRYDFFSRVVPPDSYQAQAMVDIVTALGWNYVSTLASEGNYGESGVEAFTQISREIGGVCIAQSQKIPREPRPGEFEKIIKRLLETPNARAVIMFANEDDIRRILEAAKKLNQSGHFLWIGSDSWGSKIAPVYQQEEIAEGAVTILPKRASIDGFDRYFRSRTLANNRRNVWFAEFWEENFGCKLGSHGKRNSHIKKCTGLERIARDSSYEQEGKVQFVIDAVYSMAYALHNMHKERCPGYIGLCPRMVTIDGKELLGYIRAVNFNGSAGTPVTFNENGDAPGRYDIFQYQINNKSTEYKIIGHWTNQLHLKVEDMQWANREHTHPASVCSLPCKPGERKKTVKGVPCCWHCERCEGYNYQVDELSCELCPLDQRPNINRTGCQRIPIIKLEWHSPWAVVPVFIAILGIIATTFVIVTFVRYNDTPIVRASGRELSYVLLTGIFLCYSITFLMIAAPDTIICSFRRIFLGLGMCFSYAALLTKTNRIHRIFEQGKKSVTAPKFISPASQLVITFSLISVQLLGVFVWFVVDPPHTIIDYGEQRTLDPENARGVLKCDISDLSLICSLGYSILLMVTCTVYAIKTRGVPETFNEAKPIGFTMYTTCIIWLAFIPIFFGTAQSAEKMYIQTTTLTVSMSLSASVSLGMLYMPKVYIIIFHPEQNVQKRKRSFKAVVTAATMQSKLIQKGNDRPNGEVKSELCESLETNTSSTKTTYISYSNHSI

Row | SMILES | z-score
1 | CCOC(=O)c1c2c(n(C)c1C)C(=O)C(=O)c1ccc(Br)cc1-2 | -1.44
2 | O=C(CSc1nnc(-c2c[nH]c3ccccc23)n1CC1CCCO1)Nc1ccc2c(c1)OCCO2 (stereo unspecified) | -0.233
3 | CCc1nc(C)c(C#N)c2cc(OC)c(OC)cc12 | 0.0661
4 | COc1cccc(C(c2sc3nc(C)nn3c2O)N2CCC3(CC2)OCCO3)c1 (stereo unspecified) | 0.291
5 | O=C(c1nc2ccccc2s1)N1CCSCC1 | 0.0723
6 | CC(C)(C)C(=O)Nc1nc(C2CCCN2S(=O)(=O)c2ccc(Cl)cc2)cs1 (stereo unspecified) | -0.989
7 | Cc1nn(Cc2ccccc2Cl)c(C)c1NC(=O)c1cc(-c2ccc(F)cc2)on1 | -0.355
8 | CC1CC2=C(CC1/C=N/NC(N)=S)C(C)(C)CCC2 (stereo unspecified) | active: 3.44
9 | Nc1nnc(N2CCCCC2)s1 | -0.203
10 | Cc1c2cnn(CC(=O)N3CCN(c4ncccn4)CC3)c(=O)c2c(C)n1Cc1ccc(F)cc1 | -0.25
11 | O=C(Nc1ccc(N2CCOCC2)c(Cl)c1)c1cccc(F)c1 | -0.302
12 | Cc1nc2ncccn2c1-c1csc(Nc2ccccc2)n1 | -0.96
13 | CC(=O)Nc1ccc(S(=O)(=O)Nc2nc3ccccc3nc2N2CCCC2)cc1 | 0.894
14 | Cc1cc(NC(=O)CCC(=O)N(c2ccc(F)cc2)C2(C(=O)NC3CCCCC3)CCCC2)no1 | -0.858
15 | Clc1ccc2oc(-c3ccccc3)nc2c1 | -0.242
16 | CSc1nc(C)cc(NC(N)=O)n1 | -0.0464
17 | Cc1cc(C)c2[nH]c(=O)c(C(c3nnnn3Cc3ccc4c(c3)OCO4)N3CCC(C)CC3)cc2c1 (stereo unspecified) | -0.26
18 | C=CCOC(=O)C1=C(C)NC(SCC(=O)Nc2nccs2)=C(C#N)C1c1cccs1 (stereo unspecified) | -0.336
19 | O=C(NCCC1=CCCCC1)C(=O)c1c[nH]c2ccccc12 | -0.305
20 | CCOC(=O)N1CCN(Cc2nc(N)nc(Nc3ccccc3C)n2)CC1 | -0.106
21 | Cc1ccc(C=Nc2ccccc2C(N)=O)cc1 | 0.0748
22 | CSCCC(NC(=O)c1ccc([N+](=O)[O-])cc1Cl)C(=O)OCC(=O)NCC(F)(F)F (stereo unspecified) | -0.211
23 | COc1cc(CNCc2ccc(SC)cc2)cc(OC)c1 | -0.731
24 | O=C(NCc1ccccc1)NC1(C(=O)N2CCN3CCCC3C2)CCCCC1 (stereo unspecified) | 0.0888

Row | SMILES | z-score
25 | Cc1ccc(-c2nnn(CC(=O)NCc3ccccc3)n2)c(-n2cnnn2)c1 | -0.255
26 | CCOC(=O)/C=C/C(=O)OCC(=O)NCc1ccccc1 | 0.0436
27 | COc1cc(OC)c(C2C(C#N)=C(N)OC3=C2C(=O)CC(C)(C)C3)cc1OC (stereo unspecified) | 0.399
28 | CS(=O)(=O)c1ccc(-c2nn[nH]n2)cc1 | -0.0726
29 | COC(=O)c1sc2ccccc2c1C(=O)OC | 0.376
30 | COC(=O)c1nc2ccc(C)cn2c1F | -0.388
31 | O=C(NCCO)/C(=C\c1cccc([N+](=O)[O-])c1)NC(=O)c1ccco1 | -0.0478
32 | COc1cc2c(cc1OC)C1(Nc3c-2c(-c2ccccc2)nn3-c2ccccc2)C(=O)Nc2ccccc21 (stereo unspecified) | -0.363
33 | Cc1ccccc1-c1noc(C2CCCCC2)n1 | -0.218
34 | O=C(NCCSc1c[nH]c2ccccc12)C1CC1 | -0.0941
35 | CCSCCOC(=O)C1=C(C)NC2=C(C(=O)CCC2)C1c1coc2ccccc2c1=O (stereo unspecified) | 0.842
36 | CCOC(=O)C1=C(O)/C(=C\c2ccc(CNC(=O)C(=O)Nc3ccc(C)c(C)c3)o2)N=C1C | -1.03
37 | CCc1ccc(OCC2c3cc(OC)c(OC)cc3CCN2C(=S)NCCOC)cc1 (stereo unspecified) | -0.104
38 | COc1ccc(NC(=O)c2[nH]c(C)c(C(C)=O)c2C)cc1S(=O)(=O)N1CCOCC1 | -0.17
39 | CC(C)(C)NS(=O)(=O)c1ccc(CCC(=O)Nc2ccc3c(c2)OCO3)cc1 | 0.396
40 | Cn1c(SC/C=C/c2ccccc2)nnc1-c1ccco1 | -0.135
41 | CCc1ccccc1NC(=O)CN(C)C(=O)CSc1nnc(Nc2ccc(C)cc2)s1 | 0.0529
42 | CCOC(=O)N1CCC(N(CCN(C)C)C(=S)Nc2cc(C)cc(C)c2)CC1 | 0.161
43 | O=C(Nc1c(Cl)cc(Cl)cc1C(=O)NCCN1CCOCC1)c1ccc(Cl)cc1Cl | -1.39
44 | CC(=O)Nc1ccc(N(C(=O)Cc2c[nH]c3ccccc23)C(C(=O)NC2CCCCC2)c2ccco2)cc1 (stereo unspecified) | 1.17
45 | CCOc1ccc(NC(=O)N2CCC(NC(=O)c3ccco3)CC2)cc1 | -0.0343
46 | COc1ccc(NC(=O)C(=O)N2N=C(C(C)C)CC2(O)C(F)(F)F)cc1 (stereo unspecified) | 0.0277
47 | CCC(C)NC(=S)Nc1ccccc1OC (stereo unspecified) | -0.149
48 | CCOC(=O)c1c(NS(=O)(=O)c2ccc(Br)cc2)sc2c1CCC2 | active: 16.1

Row | SMILES | z-score
49 | CC(Nc1cccc2ccccc12)C(=O)N/N=C/c1ccccn1 (stereo unspecified) | 0.235
50 | C/C(=N\NC(=S)NCCc1ccccc1)c1ccc(Cl)cc1 | 1.16
51 | CN(C)c1ccnc2sc(C(N)=O)c(N)c12 | -0.124
52 | O=C(Nc1nccs1)C1CCN(S(=O)(=O)c2cccnc2)CC1 | -0.505
53 | O=C(Cc1cccs1)NNC(=S)NC(=O)c1ccc(F)c(F)c1 | 0.74
54 | Cc1ccc(C(NC(=O)NCCCN2CCOCC2)=C(Cl)Cl)cc1F | -0.542
55 | Cc1ccc(S(=O)(=O)N2CCCCC2)cc1NC(=O)COC(=O)Cc1ccc(Cl)cc1 | -0.0868
56 | C/C(CC(=O)Nc1ccc(F)cc1)=N\NC(=O)Cc1csc(N)n1 | -0.15
57 | Cc1ccc(NC(=O)CSc2nnc(Cn3cnc4ccccc43)o2)c(C)c1 | -0.147
58 | Cc1cc(C)nc(SCC2COc3ccccc3O2)n1 (stereo unspecified) | -0.0671
59 | COc1ccc(S(=O)(=O)NCC(=O)O)cc1C(=O)NC1CCCCC1 | 0.369
60 | CCn1c(SCC(=O)N/N=C/c2cccs2)nc2ccccc21 | 0.0232
61 | CCCCC(CC)C(=O)Nc1ccc(Cl)cn1 (stereo unspecified) | -0.112
62 | CCOC(=O)c1sc(NC(=O)Cn2nnc3sc4c(c3c2=O)CCCC4)nc1C | 0.0248
63 | Cc1ncsc1CCSc1nc2ccccc2c(=O)n1C | -0.57
64 | CCOc1ccccc1NC(=O)c1cccc(NC(=O)c2ccco2)c1 | -0.729
65 | Cc1ccc(NC(=O)CNc2ccc(Cl)c(Cl)c2)cc1S(=O)(=O)N(C)C | 0.188
66 | CCCc1n[nH]c2c1/C(=N/O)CC(c1ccccc1)C2 (stereo unspecified) | 0.307
67 | CCNC(=S)NNC(=O)c1cccs1 | -0.146
68 | O=C(CSc1ncn(-c2ccccc2)n1)N1CCc2ccccc21 | 0.287
69 | CCOC(=O)C1=C(O)CSC1=Nc1ccccc1 | 0.509
70 | Cc1c(O)c(CN2CCCCC2)cc2c1oc(=O)c1ccccc12 | -0.0565
71 | COc1cccc(/C(O)=C2/C(=O)C(=O)N(CCN3CCOCC3)C2c2cccs2)c1 (stereo unspecified) | -0.0126
